Laboratory results as given in PubChem BioAssay AID686979 (National Center for Advancing Translational Sciences (NCATS), 2013).
The whole screen tested about 420,000 compounds, of which about 50,000 (12%) were called active. The inconclusive results got no clear call from the source; some entries with a clear call stand among them for comparison. The call rests on the fitted dose curve; in most records, active means well fitted inhibition curve with a large enough effect; inconclusive means small, poorly fitted or top-dose-only effect; inactive means flat fitted curve, though single readings scatter. No potency is given beside an inconclusive call; the fits are too rough.

assay: qHTS for Inhibitors of human tyrosyl-DNA phosphodiesterase 1 (TDP1): qHTS in cells in presence of CPT; details: chicken DT40 Tdp1-/-;hTDP1 cells + 20 nM CPT, ATP luminescence, 48 h; activity change, negative = growth inhibition: at 46.2 µM (top of the series); further: nearly all actives have a fitted effect of over 55% in size
Summary of the method: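 Cell growth measured by CellTiter-Glo luminescence after a minimum 48 h, 37 C compound exposure with 20 nM CPT in Tdp1-knockout DT40 cells stably expressing hTDP1, seeded 400/well; qHTS titration format.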
On the % scale 0 is the no-effect control and ±100 the full control effect; potency means the concentration at half of the fitted maximal effect; tags describe the fitted curve by direction and shape.

For `Cc1ccc(NC(=O)c2ncn(CCCN(C)CCc3ccccn3)n2)cc1C`, which “activity change, negative = growth inhibition” value is on record?
Its value is inactive: -24.9%.

For `C=CCOc1ccc(C2CC(C)=NN2c2ccccc2)cc1` (centres undefined), which “activity change, negative = growth inhibition” value is on record?
Its value is inactive: -28.7%.

For `CCOC(=O)c1sc2cc([N+](=O)[O-])cc(SCC(=O)OC)c2c1N`, which “activity change, negative = growth inhibition” value is on record?
Its value is inactive: -1.78%.

Which Potency does the source give for `O=c1[nH]c(NNC(=S)NCc2ccccc2)nc2c1C1(CCCCC1)Cc1ccccc1-2` here?
The Potency was inconclusive [inhibitor, single point].

For `Brc1c(-c2ccccc2)nc2n1Cc1ccccc1-2`, which Potency is on record?
Its Potency is inconclusive [inhibitor, single point].

Which Potency does the source give for `CSc1ccccc1NC(=O)COc1ccc(Cl)cc1C` here?
The Potency was inconclusive [inhibitor, single point].

For `C=CCC[C@H](Cc1ccc(F)cc1)C(=O)OC[C@H]1CCCN1C(=O)[C@@H](CC=C)CC(=O)NCCO`, which Potency is on record?
Its Potency is inconclusive [inhibitor, single point].

For `COc1ccc(N(CC(=O)N2CCN(c3ccc(Cl)cc3)CC2)S(=O)(=O)c2c(C)noc2C)cc1`, which Potency is on record?
Its Potency is inconclusive [inhibitor, partial curve].

For `S=C1NCCOCCOCCOCCNC(=S)N2CCOCCOCCN1CCOCCOCC2`, which “activity change, negative = growth inhibition” value is on record?
Its value is inactive: -8.21%.

For `Cc1noc(/C=C/c2ccco2)c1S(=O)(=O)N1CCC(C(=O)Nc2ccc(F)cc2F)CC1`, which Potency is on record?
The Potency was inconclusive [inhibitor, partial curve].

For `CC1Cc2ccccc2N1C(=O)CSc1nc(-c2ccccc2)cs1` (centres undefined), which Potency is on record?
Its Potency is inconclusive [inhibitor, single point].

With `Cc1ccc(C(=O)N/C(=C\c2cccs2)C(=O)NCCc2c[nH]c3ccccc23)cc1C` as the compound, how does the Potency read?
Its Potency is inconclusive [inhibitor, single point].

For `Cc1cc(=O)oc2cc(OCc3cc4c(cc3Cl)OCO4)ccc12`, which Potency is on record?
The Potency was inconclusive [inhibitor, single point].

With `Cc1ccc(C)c(C(Nc2ccccc2)c2ccc3ccc(C)nc3c2O)c1` (centres undefined) as the compound, how does the Potency read?
The Potency was active: 20.6 µM.

With `Cc1ccc([N+](=O)[O-])cc1N/C=C1\CCCCC1=O` as the compound, how does the Potency read?
The Potency was inconclusive [inhibitor, single point].

For `O=C(NCCS(=O)(=O)NCc1ccc(F)cc1)c1ccc2c(c1)OCO2`, which “activity change, negative = growth inhibition” value is on record?
Its value is inactive: -20.6%.

With `Cc1cccc(OCc2ccc(-c3nc(C#N)c(N4CCC(C(N)=O)CC4)o3)o2)c1` as the compound, how does the Potency read?
Its Potency is active: 16.4 µM.

Which Potency does the source give for `CCc1cc2c(cc3c(=O)n(CCCC(=O)NCc4ccccc4Cl)nc(CC)n32)s1` here?
Its Potency is inconclusive [inhibitor, single point].

Which Potency does the source give for `CCOC(=O)c1cccc(NC(=O)Cn2c(=O)nc(-c3ccccc3)c3ccccc32)c1` here?
Its Potency is inconclusive [inhibitor, single point].
